The campaign covered roughly 310,000 compounds. About 2,200 (0.71%) showed an effect of 50% or more. Effects have a minus sign here. This is one part of the list.
Target: human ether-à-go-go-related gene (hERG) potassium channel (human, UniProt Q12809)
Assay: primary screen, population patch clamp on CHO cells stably expressing hERG

human ether-à-go-go-related gene (hERG) potassium channel, sequence (Q12809 whole entry, looked up): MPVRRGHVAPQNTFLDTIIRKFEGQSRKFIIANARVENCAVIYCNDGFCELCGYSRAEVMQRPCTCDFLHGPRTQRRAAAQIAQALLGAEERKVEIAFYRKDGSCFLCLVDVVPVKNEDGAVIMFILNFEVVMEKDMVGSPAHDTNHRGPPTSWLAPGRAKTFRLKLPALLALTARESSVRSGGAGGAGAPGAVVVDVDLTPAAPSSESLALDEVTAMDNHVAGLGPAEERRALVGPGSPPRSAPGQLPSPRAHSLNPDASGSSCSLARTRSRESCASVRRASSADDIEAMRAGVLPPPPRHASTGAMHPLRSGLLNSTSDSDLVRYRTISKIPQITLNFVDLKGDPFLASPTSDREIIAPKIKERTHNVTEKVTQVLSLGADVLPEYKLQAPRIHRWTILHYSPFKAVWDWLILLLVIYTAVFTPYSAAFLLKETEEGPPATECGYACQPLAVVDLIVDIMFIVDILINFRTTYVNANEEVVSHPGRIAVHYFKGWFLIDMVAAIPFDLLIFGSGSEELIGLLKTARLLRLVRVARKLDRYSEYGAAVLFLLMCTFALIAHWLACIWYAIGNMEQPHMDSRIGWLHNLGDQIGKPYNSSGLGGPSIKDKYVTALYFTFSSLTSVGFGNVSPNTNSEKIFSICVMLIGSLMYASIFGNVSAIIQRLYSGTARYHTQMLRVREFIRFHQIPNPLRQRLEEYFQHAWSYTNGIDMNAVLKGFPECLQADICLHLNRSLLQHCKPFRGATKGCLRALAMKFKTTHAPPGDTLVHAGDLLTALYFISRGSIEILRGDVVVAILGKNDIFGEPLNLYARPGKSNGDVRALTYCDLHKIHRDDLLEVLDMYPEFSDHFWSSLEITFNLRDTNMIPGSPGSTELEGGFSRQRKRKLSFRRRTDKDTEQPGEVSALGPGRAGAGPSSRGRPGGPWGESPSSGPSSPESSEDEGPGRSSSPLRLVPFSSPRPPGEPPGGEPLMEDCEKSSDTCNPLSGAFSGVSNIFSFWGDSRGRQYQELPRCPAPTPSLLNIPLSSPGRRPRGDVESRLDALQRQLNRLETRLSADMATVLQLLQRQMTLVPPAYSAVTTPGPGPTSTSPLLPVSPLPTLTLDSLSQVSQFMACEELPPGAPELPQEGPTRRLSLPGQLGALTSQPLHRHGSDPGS

Row | SMILES | hERG current change (%, negative = inhibition) at 1uM
1 | CCC(c1nnc(SCC(=O)Nc2cccc(S(N)(=O)=O)c2)n1-c1ccc(OC)cc1)N(C)C (stereo not drawn) | 13.2%
2 | O=c1[nH]c2ccccc2c(=O)n1CCCO | 5.33%
3 | CC(/C=N/NC(=O)c1cc(-c2ccc3ccccc3c2)n[nH]1)=C\c1ccco1 | 3.36%
4 | O=C(c1cc(Cl)ccc1Cl)N1CCN(c2ccccn2)CC1 | -4.02%
5 | CC(=O)c1c(C)oc2ccc(N(C(=O)c3ccncc3)S(=O)(=O)c3ccccc3)cc12 | 1.05%
6 | CC1=C(C(=O)OCCC#N)C(c2cc3c(cc2Br)OCO3)NC(=O)N1 (stereo not drawn) | 12.9%
7 | Cc1onc(-c2ccccc2)c1C(=O)NNC(=S)NC(=O)/C=C/c1cccs1 | 7.15%
8 | CC(C)=N/N=C(\N)SCc1ccccc1 | 0.331%
9 | COc1ccc(-c2ccc(SCc3cccnc3)nn2)cc1OC | 20.3%
10 | O=C(CSc1ncccn1)N1CCN(Cc2ccccc2)CC1 | 10.6%
11 | c1ccc(CN2CCOCCOCCOCCOCC2)cc1 | -6.26%
12 | O=C(COc1ccccc1Br)N1CCNC1=O | 1.69%
13 | CCCCNC(=O)C1(O)c2cc(Br)ccc2NC(=O)N1c1cccc(OC)c1 (stereo not drawn) | 10.9%
14 | Cc1cc(C(F)(F)F)c(C#N)c(Sc2ccccc2)n1 | 12.2%
15 | OCCCNc1ncnc2scc(-c3ccc(Cl)cc3)c12 | 13%
16 | Cc1nc2ccccc2c(=O)n1NC(=O)C1CCCCC1 | 12.5%
17 | CCSc1ccc(-c2nn(-c3ccccc3)cc2/C=C(/C#N)C(=O)NCCCOC)cc1 | 4.75%
18 | O=C(CCNC(=O)c1ccc(Br)cc1)Nc1nccs1 | 13.9%
19 | CCOC(=O)c1ccc(NC(=O)CCc2nc(-c3cccc(C)c3)no2)cc1 | 10.6%

Row | SMILES | hERG current change (%, negative = inhibition) at 1uM
20 | CNC(=O)c1nc[nH]c1C(=O)NC | 9.16%
21 | CCCN(CCC)CCCNC(=O)CS(=O)Cc1nc(-c2ccc(OC)c(OC)c2)oc1C (stereo not drawn) | 2.97%
22 | CCOc1ccc(N2CC(C(=O)NCc3ccc(F)cc3)CC2=O)cc1 (stereo not drawn) | -3.23%
23 | CCC1CCCCN1CCCNC(=O)c1ccc2c(c1)NC(=O)CS2 (stereo not drawn) | 21.5%
24 | COc1cc(/C=C2/C(=O)N(c3ccc([N+](=O)[O-])cc3)N=C2N2CCOCC2)ccc1O | -6.82%
25 | O=C(O)C1CCN(C(=O)CSc2nc3ccccc3c(=O)n2Cc2ccccc2)CC1 | 1.3%
26 | Cn1nc(C(=O)N2CCOCC2)c2ccccc2c1=O | 10.5%
27 | CCc1nnc(NC(=O)CN2C(=O)c3ccccc3C2=O)s1 | 7.94%
28 | CCOC(=O)N1CCN(C(=O)c2ccc3c(c2)sc2nc(-c4ccc(OC)cc4)cn23)CC1 | 3.2%
29 | COc1ccc(C2CC(=O)C3=C(C2)Nc2ccccc2NC3c2coc3ccccc3c2=O)cc1OC (stereo not drawn) | 12.6%
30 | C=CCOc1ccc(-c2n[nH]c(=S)o2)cc1 | 13.5%
31 | COc1ccc(NS(=O)(=O)c2cccc3cccnc23)cc1OC | 21.4%
32 | O=C(Nc1ccc2c(c1)OCO2)N1CCC(CO)(CC2CCCCO2)CC1 (stereo not drawn) | 9.73%
33 | C=CCN1CCN(C(c2cc(OC)ccc2OC)c2nnnn2CC2CCCO2)CC1.Cl (stereo not drawn) | 12.4%
34 | C/C(CC(=O)Nc1cccc2c1CCCC2)=N\NC(=O)COc1ccccc1 | 0.297%
35 | COc1ccccc1N1CCN(C(=O)C2Cc3ccccc3CN2C(=O)c2ccco2)CC1 (stereo not drawn) | -11.8%
36 | Cc1cccc(C)c1NC(=O)CN(C)C(=O)C1=COCCO1 | 19.3%
37 | O=C(C1CCN(c2nnc(N3CCCC3=O)s2)CC1)N1CCN(c2cccc(C(F)(F)F)c2)CC1 | 4.09%
38 | Cc1ccc(S(=O)(=O)c2nc(Nc3ccccc3N3CCOCC3)sc2Cl)cc1 | 9.73%

Row | SMILES | hERG current change (%, negative = inhibition) at 1uM
39 | COc1ccc(CNC(=O)c2ccc(N3CCC4(CC3)CC(c3ccc(Cl)cc3)=NO4)c([N+](=O)[O-])c2)cc1 | 5.68%
40 | O=C1Nc2cc(Cl)c(Cl)cc2N(O)N1c1ccc(Cl)cc1 | -1.79%
41 | Cc1noc(C)c1-c1nc(CSc2ccc(Cl)cc2)no1 | 2.31%
42 | Cc1[nH]c2ccccc2c1/C=N/NC(=O)c1cc(C(C)C)[nH]n1 | 13%
43 | Cn1c(-c2cccs2)nc2ccccc21 | 6.26%
44 | c1ccc2c(c1)nc1n2CN(Cc2ccc3c(c2)OCO3)CN1 | 15%
45 | CS(=O)(=O)OCCCCOS(C)(=O)=O | 12.2%
46 | CCOC(=O)CSc1cc(=O)n(CC)c2ccccc12 | 8.34%
47 | O=c1cc2c(nn1Cc1cccc([N+](=O)[O-])c1)-c1ccccc1CC2 | 18.4%
48 | CC(C)(C)C(=O)CSc1nnc(Nc2ccccc2)s1 | 9.63%
49 | CC(=O)OCC(=O)[C@H]1CC[C@H]2[C@@H]3CC=C4C[C@@H](O)CC[C@]4(C)[C@H]3CC[C@]12C | 2.11%
50 | COCC(=O)N1CCC(Oc2ccc(C(=O)N3CCSCC3)cc2)CC1 | 5.41%
51 | Nc1nonc1-n1nnc(C(=O)N/N=C/c2cccc(Cl)c2Cl)c1CN1CCCC1 | 14.6%
52 | CN(C)c1ccc(NC(=O)c2ccc(COc3cccc(Cl)c3)o2)cc1 | 3.43%
53 | CC(C(=O)NC1CCCCCC1)n1cc([N+](=O)[O-])cn1 (stereo not drawn) | 12.4%
54 | CCOC(=O)C1CCCN(C(=O)c2ccc(-c3ccc([N+](=O)[O-])cc3)o2)C1 (stereo not drawn) | -9.58%
55 | Cc1nnc(SCC(=O)Nc2cccc(S(=O)(=O)N(C)c3ccccc3)c2)s1 | 5.83%
56 | CC1CCN(C(=O)CCNC(=O)Cn2cnc3sc4c(c3c2=O)CCCC4)CC1 | 2.27%
57 | O=C(COC(=O)c1ccncc1)Nc1cc(Cl)ccc1Cl | 9.87%
